# Measurements published in paper PMC3781056, “New Pyrazolopyrimidine Inhibitors of Protein Kinase D as Potent Anticancer Agents for Prostate Cancer Cells” (PLoS ONE, 2013).
# Changes are numbered by the printed parent chain.
# Key:
# [1] = test system: PC3 cells infected with Adv-PKD1 or Adv-PKD3; assay: Rescue of anti-proliferative effect by adenoviral PKD1/PKD3 overexpression (MTT); type: cell-based; conditions: PC3, Adv-PKD1 at 100 MOI, 10 and 30 µM, 72 h
# Description: MTT solution was added to each well and incubated for 4 h. Optical density was read at 570 nm to determine cell viability.
# [2] = test system: PC3 cells; assay: Cell cycle analysis by flow cytometry; type: cell-based; conditions: 30 µM, 72 h, control 5.8%
# Description: PKD has emerged as a promising therapeutic target for cancer. […] Cell proliferation was determined by treating the cells at 30 µM concentration of agent, and then cell number was counted for six consecutive days in the presence and absence of inhibitor.
# PC3 cells were plated in triplicates in 24-well plates. Cells were allowed to attach overnight. […] Cells were counted daily for a total of 5 days. Fresh media and inhibitor were added every 2 days. The means of triplicate determinations were plotted over time. The experiment was repeated twice and results from one representative experiment are shown. […] PC3 cells were seeded into 96-well plates (3000 cells/well) and were then incubated in media containing 0.3–100 µM inhibitors for 72 h. MTT solution was added to each well and incubated for 4 h. Optical density was read at 570 nm to determine cell viability. The IC50 was determined as the mean of two independent experiments for each compound. C. […] Cell cycle distribution was determined by flow cytometry after propidium iodide labeling of fixed cells. Statistical significance was determined by unpaired t-test and is indicated. **, p<0.01; ***, p<0.001. […]
# Proliferation of PC3 cells was measured by counting the number of viable cells upon trypan blue staining as previously described. […] The labeled cells were analyzed using a FACSCalibur flow cytometer (BD Biosciences).
# [3] = test system: most native kinases, including the Src, Abl, CAMK, and CDK family of kinases, ERK1/2, and PKA; conditions: wild-type kinases; cited from earlier work
# [4] = target: T1, endogenous PKD1 in LNCaP prostate cancer cells (Homo sapiens, UniProt Q15139); assay: PMA-induced endogenous PKD1 activation in LNCaP cells (immunoblot); type: cell-based; conditions: PMA 10 nM 20 min
# T1 construct: endogenous in cells; host or cells: LNCaP
# T1 sequence (Q15139 1-912): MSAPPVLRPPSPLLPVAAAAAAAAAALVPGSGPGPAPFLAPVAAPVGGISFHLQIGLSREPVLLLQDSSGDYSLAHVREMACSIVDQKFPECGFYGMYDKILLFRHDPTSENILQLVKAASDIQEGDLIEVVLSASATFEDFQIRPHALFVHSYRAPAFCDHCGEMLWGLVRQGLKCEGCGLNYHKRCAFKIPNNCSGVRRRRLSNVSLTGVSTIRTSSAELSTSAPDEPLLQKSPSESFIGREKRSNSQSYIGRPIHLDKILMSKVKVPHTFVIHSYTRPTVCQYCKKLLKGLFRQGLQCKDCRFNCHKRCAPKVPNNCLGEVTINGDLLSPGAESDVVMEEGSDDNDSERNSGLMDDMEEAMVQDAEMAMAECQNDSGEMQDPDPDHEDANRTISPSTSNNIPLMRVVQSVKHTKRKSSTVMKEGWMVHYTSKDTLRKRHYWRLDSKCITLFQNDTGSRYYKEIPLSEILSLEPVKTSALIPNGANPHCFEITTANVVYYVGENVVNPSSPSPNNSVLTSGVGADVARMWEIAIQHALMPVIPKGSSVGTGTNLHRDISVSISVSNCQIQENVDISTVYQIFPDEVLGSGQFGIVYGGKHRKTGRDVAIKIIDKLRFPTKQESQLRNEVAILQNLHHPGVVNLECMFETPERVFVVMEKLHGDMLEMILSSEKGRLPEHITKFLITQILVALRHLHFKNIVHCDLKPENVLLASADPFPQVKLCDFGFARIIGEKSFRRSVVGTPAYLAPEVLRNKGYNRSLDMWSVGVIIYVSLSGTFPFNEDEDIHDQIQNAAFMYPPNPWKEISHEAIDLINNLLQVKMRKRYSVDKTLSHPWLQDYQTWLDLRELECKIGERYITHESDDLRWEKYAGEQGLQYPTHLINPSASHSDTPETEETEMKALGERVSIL
# [5] = target: T2, Flag-PKD1^M659A (Homo sapiens, UniProt Q15139, M659A); assay: PMA-induced activation of overexpressed Flag-PKD1 mutant in cells (p-S916 immunoblot); conditions: data not shown
# T2 sequence (Q15139 1-912 M659A): T1 sequence (Q15139 1-912) with M659A
smiles,measurement,setting,value
"CC(C)(C)n1nc(-c2cccc3ccccc23)c2c(N)ncnc21 [Compound 1-NA-PP1, 1-(t-Butyl)-3-(naphthalen-1-yl)-1H-pyrazolo[3,4-d]pyrimidin-4-amine]",reversal of 1-NA-PP1-induced inhibition of cell proliferation by PKD overexpression,[1],nearly complete reversal
same,proportion of cells in G2/M phase,[2],28.6%
same,IC50,[3],> 1000 nM
same,PKC-dependent trans-phosphorylation at Ser744/748 of PKD1,[4],unaffected
same,inhibition of Flag-PKD1^M659A compared to wild-type Flag-PKD1,[5],no significant difference
